T1: mouse 129 SIRP-α D1 domain (mouse (129 strain), UniProt P97797 32-150)
T1 construct: also called m129
T1 chain: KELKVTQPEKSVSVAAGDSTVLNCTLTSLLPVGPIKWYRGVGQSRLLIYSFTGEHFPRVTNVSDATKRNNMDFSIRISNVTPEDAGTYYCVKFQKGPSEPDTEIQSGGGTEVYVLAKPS

T2: C57BL/6 mouse SIRP-α D1 domain (mouse (C57BL/6 strain), UniProt P97797 32-148)
T2 sequence: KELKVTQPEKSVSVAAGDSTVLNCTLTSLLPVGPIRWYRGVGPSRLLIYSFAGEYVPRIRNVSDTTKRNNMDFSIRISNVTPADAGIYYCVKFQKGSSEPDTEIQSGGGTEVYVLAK

T3: NOD mouse SIRP-α D1 domain (mouse (NOD strain))
T3 chain: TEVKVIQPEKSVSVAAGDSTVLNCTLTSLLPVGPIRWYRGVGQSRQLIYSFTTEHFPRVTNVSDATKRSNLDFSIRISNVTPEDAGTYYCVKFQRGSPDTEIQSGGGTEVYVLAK

T4: cynomolgus SIRP-α D1 domain (SEQ ID NO:11) (cynomolgus, UniProt Q5TFQ8 30-148 (human entry), limits assumed)
T4 construct: also called cyno1
T4 chain: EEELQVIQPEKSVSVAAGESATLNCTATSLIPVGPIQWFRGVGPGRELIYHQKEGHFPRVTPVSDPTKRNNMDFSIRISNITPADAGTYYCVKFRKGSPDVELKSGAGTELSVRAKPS

T5: high affinity SIRP-α D1 variant CV1-3 (human)
T5 chain: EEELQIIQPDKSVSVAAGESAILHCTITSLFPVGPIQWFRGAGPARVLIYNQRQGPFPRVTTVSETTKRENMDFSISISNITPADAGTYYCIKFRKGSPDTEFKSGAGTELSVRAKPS

T6: cynomolgus SIRP-α D1 domain (SEQ ID NO:12) (cynomolgus, UniProt Q5TFQ8 30-148 (human entry), limits assumed)
T6 construct: also called cyno2; Cyno2
T6 chain: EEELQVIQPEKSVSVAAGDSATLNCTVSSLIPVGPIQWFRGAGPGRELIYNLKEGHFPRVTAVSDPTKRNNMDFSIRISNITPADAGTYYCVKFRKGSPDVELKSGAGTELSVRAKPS


Legend:
[1] = target: T1, mouse 129 SIRP-α D1 domain; assay: SPR, captured scFv-Fc
Procedure, shortened: (§1)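 Pre-filtered culture media supplied the scFv-Fc antibody clones, which were captured by anti-human IgG Fc amine-coupled (about 4000 RU) to a GLC chip on a ProteOn XPR36. SIRP analytes were flowed in PBS pH 7.4 with 0.01% Tween-20 at 25° C. Interspot and buffer-blank responses were subtracted from the data, which were then fitted to a 1:1 Langmuir model. Dissociation rate constants (koff) were derived from this fitting.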

[2] = target: T2, C57BL/6 mouse SIRP-α D1 domain; assay: SPR, captured scFv-Fc
Procedure, shortened: as §1

[3] = target: T3, NOD mouse SIRP-α D1 domain; assay: SPR, captured scFv-Fc
Procedure, shortened: as §1

[4] = target: T4, cynomolgus SIRP-α D1 domain (SEQ ID …); assay: SPR, captured scFv-Fc, 100 nM analyte
Protocol: (§2) Binding of the antibody clones to various SIRP proteins was determined using surface plasmon resonance (SPR) detection on a ProteOn XPR36 instrument (Bio-Rad, Hercules, Calif.) using phosphate buffered saline (PBS, pH 7.4) supplemented with 0.01% Tween-20 (PBST) as running buffer. The pre-filtered media containing the secreted antibodies was used directly for the assay. First, anti-Human IgG Fc (BR-1008-39, GE Healthcare) was amine-coupled onto a GLC sensor chip to generate the capture surfaces for the antibodies. About 4000 RU per flow cell of immobilized anti-human IgG Fc is achieved. Each clone is screened using the same method as follows.
(§3) (1) ‥5-10 uL of pre-filtered media in 10 mM sodium acetate buffer (pH4.5) was injected for 2 mins at 30 ul/min;
(§4) The koff rates of binding of each clone to each SIRP analyte were determined using SPR (Table C). The SPR screening conditions have been described herein, and the Koff values were determined using Langmuir kinetic fittings. The CD47 blocking properties (block, non-block, kick-off) are described in the last column of the Table C. Each antibody is identified according to its corresponding SEQ ID NO. SIRP analyte sequences are as follows: CV1-3, SEQ ID NO:18; v1, SEQ ID NO:5; v2, SEQ ID NO:6; cyno1, SEQ ID NO:11; cyno2, SEQ ID NO:12; m129, SEQ ID NO:7; NOD, SEQ ID NO: 8; BL6, SEQ ID NO:9; sirpb1, SEQ ID NO:13; sirpg, SEQ ID NO:15.

[5] = target: T5, high affinity SIRP-α D1 variant CV1-3; assay: SPR, captured scFv-Fc, 100 nM analyte
Protocol: as §2, §3, §4

[6] = target: T6, cynomolgus SIRP-α D1 domain (SEQ ID …); assay: SPR, captured scFv-Fc, 100 nM analyte
Protocol: as §2, §3, §4

[7] = target: T7, human SIRP-α v1 D1 domain (human, UniProt P78324 31-149); assay: SPR, captured scFv-Fc, 100 nM analyte
T7 construct: also called human v1; human α v1
T7 sequence (P78324 31-149 limits assumed): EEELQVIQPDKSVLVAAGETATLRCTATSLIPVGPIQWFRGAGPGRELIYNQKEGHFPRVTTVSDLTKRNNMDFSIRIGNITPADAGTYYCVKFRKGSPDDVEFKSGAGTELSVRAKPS
Protocol: as §2, §3, §4

human SIRPγ isoform 1 = target: T8, human SIRPγ isoform 1 (human, UniProt Q9P1W8 29-147); assay: SPR, captured scFv-Fc, 100 nM analyte
Chain of human SIRPγ isoform 1 (Q9P1W8 29-147 limits assumed): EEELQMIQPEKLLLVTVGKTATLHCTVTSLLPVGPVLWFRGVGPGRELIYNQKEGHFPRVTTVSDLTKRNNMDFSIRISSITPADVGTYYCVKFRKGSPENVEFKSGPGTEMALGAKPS
T8 construct: also called sirpg; sirp-g
Protocol: as §2, §3, §4

[8] = target: T9, human SIRP-α v2 D1 domain (human); assay: SPR, captured scFv-Fc, 100 nM analyte
T9 construct: also called human v2; human α v2
Protocol: as §2, §3, §4

human SIRPβ isoform 1 = target: T10, human SIRPβ isoform 1 (human, UniProt O00241 30-148); assay: SPR, captured scFv-Fc, 100 nM analyte
Chain of human SIRPβ isoform 1 (O00241 30-148 limits assumed): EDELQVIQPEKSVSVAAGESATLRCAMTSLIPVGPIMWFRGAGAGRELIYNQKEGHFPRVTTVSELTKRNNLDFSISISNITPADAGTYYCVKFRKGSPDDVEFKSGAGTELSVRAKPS
T10 construct: also called sirpb1; Sirpb1
Protocol: as §2, §3, §4

Binder | binding result [1] | binding result [2] | binding result [3] | koff [4] [s⁻¹] | koff [5] [s⁻¹] | koff [6] [s⁻¹] | koff [7] [s⁻¹] | koff (human SIRPγ isoform 1) [s⁻¹] | koff [8] [s⁻¹] | koff (human SIRPβ isoform 1) [s⁻¹]
S117 scFv-Fc (scFv) scFv: ETVLTQSPATLSVSPGERATLSCRASQTVGSKLAWHQQKPGQAPRLLIYDATNRATGIPDRFSGSGSGTDFTLTISSLQTEDSAVYYCQQYYYWPPYRFGGGTKVEIKGQSSRSSGGGGSSRGGGSDVQLVESGGGVVRPGESLRLSCAASGFSFSSYAMNWVRQAPGEGLEWVSRINSGGGGTDYAESVKGRFTISRDNSENTLYLQMNSLRAEDTAVYYCAKQYDWNGFFDYWGLGALVTVSSSL[letters of human IgG1 Fc with C220S A231V (EU numbers) and a few adjoining residues left out] | no binding (tested: 100 nM) | no binding (tested: 100 nM) | no binding (tested: 100 nM) | 1.83e-05 | 0.000275 | 5.92e-05 | 1.2e-05 | 4.3e-06 | 3.4e-05 | –
S118 scFv-Fc (scFv) scFv: ETVLTQSPATLSVSPGERATLSCRASQTVGSKLAWHQQKPGQAPRLLIYDASRRATGIPDRFSGSGSGTDFTLTISSLQTEDSAVYYCQQYYYWPPYRFGGGTKVEIKGQSSRSSGGGGSSGGGGSDVQLVESGGGVVRPGESLRLSCAASGFSFSSYAMNWVRQAPGEGLEWVSRINSGGGGTDYAESVKGRFTISRDNSENTLYLQMNSLRAEDTAVYYCAKQYDWNGFFDYWGLGALVTVSSSL[letters of human IgG1 Fc with C220S (EU numbers) and a few adjoining residues left out] | no binding (tested: 100 nM) | no binding (tested: 100 nM) | no binding (tested: 100 nM) | 6.97e-05 | 0.000247 | 8.06e-05 | 9.17e-06 | 1.13e-05 | 4.12e-05 | 1.31e-05
S135 scFv-Fc (scFv) scFv: EIVLTQSPATLSVSPGERVTFSCRASQNVRSDIAWYQQKPGQAPRLLIYAASSRDTGIPDRFSGSGSGTDFTLTISSLQSEDFGVYYCQQYYDWPPFTFGGGTKVEIKGQSSRSSGGGGSSGGGGSDVQLVESGGGVVRPGESLRLSCAASGFSFSIYAMSWVRQAPGEGLEWVSTIGADDTYYADSVKGRFTISRDNSKNTLYLQMNSLRAEDTAVYYCAKDSTVGWSGDFFDYWGLGTLVTVSSSL[letters of human IgG1 Fc with C220S (EU numbers) and a few adjoining residues left out] | no binding (tested: 100 nM) | no binding (tested: 100 nM) | no binding (tested: 100 nM) | 0.000473 | 0.00363 | 0.000388 | 0.000658 | 0.00146 | 8.78e-05 | 0.000521
